The values below come from the supplement of paper PMC12067230.

This is a noisy data set.
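Also: [psi-pin-] Saccharomyces cerevisiae expressing SupN fusions, induced by 100 µM Cu2SO4, selected 7 d at 30 °C without adenine and uracil, scored by deep sequencing of output versus input.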

One data set is described as follows: amyloid nucleation score relative to library mode (yeast Sup35 reporter selection) (log enrichment difference); higher = more amyloid nucleation; sequences are the first 22 residues of the Bri2 peptide extended by up to 12 random residues. As to conditions: random library (experiment): 1;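 active = nucleation score significantly above 0 at FDR 0.05; inactive = not significantly above 0 or absent from output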.
For the sequence EASNCFAIRHFENKFAVETLICCYGCRLTFVTVV, the amyloid nucleation score entry is “inactive”. Turning to EASNCFAIRHFENKFAVETLICCYGNGVKGDSRA, the amyloid nucleation score turned out to be 5.45. Regarding EASNCFAIRHFENKFAVETLICCYHDLPGMRMFS, the amyloid nucleation score was found to be 3.24. As for EASNCFAIRHFENKFAVETLICCYHRCQVANFFR, the amyloid nucleation score is -0.195. Consider EASNCFAIRHFENKFAVETLICCYHRPALRPTMC, for which the amyloid nucleation score result was “inactive”. Consider EASNCFAIRHFENKFAVETLICCYHSCGFSTWLA, for which the amyloid nucleation score entry was “inactive”. On the same count and under the same terms, the same measure for EASNCFAIRHFENKFAVETLICCYLY: 4.76; for EASNCFAIRHFENKFAVETLICCYMTYWQ: 3.33. On to EASNCFAIRHFENKFAVETLICCYNIGRSARLRR, for which the amyloid nucleation score turned out to be 5.56. The same measure, in the same setting: then EASNCFAIRHFENKFAVETLICCYQNPGVGVVVM, with “inactive”; and EASNCFAIRHFENKFAVETLICCYRCDKNQTWYV, with 3.4. For EASNCFAIRHFENKFAVETLICCYRLVFTVCRTG, the amyloid nucleation score turned out to be 0.591. Take EASNCFAIRHFENKFAVETLICCYS: the amyloid nucleation score entry is “inactive”. EASNCFAIRHFENKFAVETLICCYSGWLDGGRRQ yielded an amyloid nucleation score of 8.94.

For the sequence EASNCFAIRHFENKFAVETLICCYSSSSKMCFGI, the amyloid nucleation score amounted to 5.01. For EASNCFAIRHFENKFAVETLICCYTAYWF, the amyloid nucleation score turned out to be 4.75. In turn, EASNCFAIRHFENKFAVETLICCYVA showed an amyloid nucleation score of 5.92. The sequence EASNCFAIRHFENKFAVETLICCYVCACDWVGTV registered an amyloid nucleation score of 5.4. As to EASNCFAIRHFENKFAVETLICCYVCVRSLDVWW, the amyloid nucleation score was 5.47. In the case of EASNCFAIRHFENKFAVETLICCYVVKSPMYLFG, the amyloid nucleation score was determined as 5. In the case of EASNCFAIRHFENKFAVETLICCYVVTLCMWGYA, the amyloid nucleation score entry was “inactive”. On the same count and under the same terms, then EASNCFAIRHFENKFAVETLICCYVYTPSADMQ, with 8.52; and EASNCFAIRHFENKFAVETLICCYWISNQVNLLT, with “inactive”; and EASNCFAIRHFENKFAVETLICCYYSVWPARGLW, with 5.01. On to EASNCFAIRHFENKFAVETLICDACDIPFGGSIR, for which the amyloid nucleation score worked out at 2.73.

On to EASNCFAIRHFENKFAVETLICDACKHRRERYYC, for which the amyloid nucleation score result is “inactive”. Turning to EASNCFAIRHFENKFAVETLICDAFV, the amyloid nucleation score entry is “inactive”.

On to EASNCFAIRHFENKFAVETLICDAGVTWRLCELG, for which the amyloid nucleation score result is “inactive”. For EASNCFAIRHFENKFAVETLICDAL, the amyloid nucleation score result was “inactive”.

On to EASNCFAIRHFENKFAVETLICDALAASYSGSPK, for which the amyloid nucleation score entry is “inactive”. Still for that read-out and setting: then EASNCFAIRHFENKFAVETLICDALNDKRWMNNW, with “inactive”.

Regarding EASNCFAIRHFENKFAVETLICDALPAESASRIL, the amyloid nucleation score entry was “inactive”. On the same count and under the same terms, the same measure for EASNCFAIRHFENKFAVETLICDALTRGDRYLSD: “inactive”; for EASNCFAIRHFENKFAVETLICDALYIRVSMG: “inactive”. The same measure, in the same setting: the same measure for EASNCFAIRHFENKFAVETLICDAMVRRWYHMST: 3.02. As for EASNCFAIRHFENKFAVETLICDANCQLWLSVCS, the amyloid nucleation score turned out to be 0.428. EASNCFAIRHFENKFAVETLICDAQAFRPDVGQS yielded an amyloid nucleation score of -0.338.

Consider EASNCFAIRHFENKFAVETLICDASTVIRVRRRR, for which the amyloid nucleation score entry is “inactive”. For the sequence EASNCFAIRHFENKFAVETLICDATMLIGVACRA, the amyloid nucleation score result was “inactive”. Regarding EASNCFAIRHFENKFAVETLICDATWLDPVVGVW, the amyloid nucleation score result was “inactive”. On to EASNCFAIRHFENKFAVETLICDAVPRP, for which the amyloid nucleation score entry was “inactive”. Still for that read-out and setting: the same measure for EASNCFAIRHFENKFAVETLICDAVQSTGTEG: “inactive”.

The sequence EASNCFAIRHFENKFAVETLICDAWADCGAKGTS came in with an amyloid nucleation score of 5.47.

EASNCFAIRHFENKFAVETLICDAYHHWCRSTPT returned an amyloid nucleation score of 3.29. As for EASNCFAIRHFENKFAVETLICDAYPRLVASCAC, the amyloid nucleation score entry is “inactive”.

As to EASNCFAIRHFENKFAVETLICDAYVAVVCALAR, the amyloid nucleation score result is “inactive”. As for EASNCFAIRHFENKFAVETLICDC, the amyloid nucleation score result was “inactive”.

Take EASNCFAIRHFENKFAVETLICDCALGCKKGNIT: the amyloid nucleation score came to 7.21.

For the sequence EASNCFAIRHFENKFAVETLICDCAPFTPFCRNW, the amyloid nucleation score was 5.21.

As to EASNCFAIRHFENKFAVETLICDCEAL, the amyloid nucleation score result is “inactive”. EASNCFAIRHFENKFAVETLICDCEVETRFLDGG: the amyloid nucleation score entry was “inactive”. On the same count and under the same terms, the same measure for EASNCFAIRHFENKFAVETLICDCGSGNLYFHVA: 6.84; for EASNCFAIRHFENKFAVETLICDCLEVLCQPTSM: “inactive”; for EASNCFAIRHFENKFAVETLICDCMATQLEAWVW: “inactive”.

The data set is the same for the next values; noted with them: random library (experiment): 2.
In the case of EASNCFAIRHFENKFAVETLICCYESLSLDRYSL, the amyloid nucleation score worked out at 3.17. Sequence EASNCFAIRHFENKFAVETLICCYESTAISHLSR came in with an amyloid nucleation score of 3.65. In the case of EASNCFAIRHFENKFAVETLICCYFA, the amyloid nucleation score was 7.77. On the same count and under the same terms, then EASNCFAIRHFENKFAVETLICCYFNSCKVLTVN, with 3.94; and EASNCFAIRHFENKFAVETLICCYFYDADRVWCG, with 4.24. Consider EASNCFAIRHFENKFAVETLICCYG, for which the amyloid nucleation score entry is “inactive”. Sequence EASNCFAIRHFENKFAVETLICCYGRYVSYENRK yielded an amyloid nucleation score of 1.47.

EASNCFAIRHFENKFAVETLICCYLCAYIVSA came in with an amyloid nucleation score of 4.82. Turning to EASNCFAIRHFENKFAVETLICCYLLPSNSSTSS, the amyloid nucleation score stood at 7.53. In the case of EASNCFAIRHFENKFAVETLICCYLTLNVVSGGT, the amyloid nucleation score result was “inactive”. With EASNCFAIRHFENKFAVETLICCYMCISATCSRR, the amyloid nucleation score came to 1.57. EASNCFAIRHFENKFAVETLICCYMVIDFVHFRF: the amyloid nucleation score was found to be 0.86. With EASNCFAIRHFENKFAVETLICCYPYSALMNG, the amyloid nucleation score amounted to 5.7. As for EASNCFAIRHFENKFAVETLICCYRYMQLYGSPR, the amyloid nucleation score entry was “inactive”. Same read-out and setting: the same measure for EASNCFAIRHFENKFAVETLICCYST: 6.83; for EASNCFAIRHFENKFAVETLICCYVWTMSSWLYR: “inactive”; for EASNCFAIRHFENKFAVETLICCYVYGVLGVEGM: 2.78.

For the sequence EASNCFAIRHFENKFAVETLICDAHSLICDTVLG, the amyloid nucleation score was -0.728. The same measure, in the same setting: the same measure for EASNCFAIRHFENKFAVETLICDALKYGDGFLPG: “inactive”; for EASNCFAIRHFENKFAVETLICDANWVWHCSSLW: 4.87; for EASNCFAIRHFENKFAVETLICDAPLYCMWSVGL: “inactive”. Turning to EASNCFAIRHFENKFAVETLICDASRLSLRGGKG, the amyloid nucleation score entry was “inactive”. Regarding EASNCFAIRHFENKFAVETLICDAWV, the amyloid nucleation score entry was “inactive”. In turn, EASNCFAIRHFENKFAVETLICDCDVELLMATYW returned an amyloid nucleation score of -0.231. On the same count and under the same terms, then EASNCFAIRHFENKFAVETLICDCFEYSHGYP, with 1.89; and EASNCFAIRHFENKFAVETLICDCFSR, with 5.38; and EASNCFAIRHFENKFAVETLICDCHDQK, with 6.59. EASNCFAIRHFENKFAVETLICDCHNWCHSCMHG registered an amyloid nucleation score of 8.34. Same read-out and setting: the same measure for EASNCFAIRHFENKFAVETLICDCLALTI: “inactive”; for EASNCFAIRHFENKFAVETLICDCLSLSCQVFPR: 7.6.

The same data set, now with this note: random library (experiment): 3.
As to EASNCFAIRHFENKFAVETLICCYGDPRSRAALV, the amyloid nucleation score entry is “inactive”. The same measure, in the same setting: the same measure for EASNCFAIRHFENKFAVETLICCYLKRCLYMLRL: “inactive”; for EASNCFAIRHFENKFAVETLICCYRCMDLDSGWT: 5.9. For EASNCFAIRHFENKFAVETLICCYRVVRPLMSMW, the amyloid nucleation score entry was “inactive”.

The sequence EASNCFAIRHFENKFAVETLICCYTLSNR showed an amyloid nucleation score of 7.79.

In turn, EASNCFAIRHFENKFAVETLICCYVVGGSYCW displayed an amyloid nucleation score of 6.34.

Turning to EASNCFAIRHFENKFAVETLICDA, the amyloid nucleation score result was “inactive”. As for EASNCFAIRHFENKFAVETLICDAGLDGLVWRAG, the amyloid nucleation score result was “inactive”. On to EASNCFAIRHFENKFAVETLICDAMGVLAWASFM, for which the amyloid nucleation score result is “inactive”. As to EASNCFAIRHFENKFAVETLICDAMIPAPHCLNF, the amyloid nucleation score entry was “inactive”. Turning to EASNCFAIRHFENKFAVETLICDAMLLMGTWTA, the amyloid nucleation score result is “inactive”.

Regarding EASNCFAIRHFENKFAVETLICDAVGRDLVEGMS, the amyloid nucleation score entry is “inactive”.

For the sequence EASNCFAIRHFENKFAVETLICDAVVGDDLVL, the amyloid nucleation score entry was “inactive”. Regarding EASNCFAIRHFENKFAVETLICDAYFCLLEPCSN, the amyloid nucleation score result is “inactive”. In turn, EASNCFAIRHFENKFAVETLICDCAGLRVWTGWP came in with an amyloid nucleation score of -0.0945.

With EASNCFAIRHFENKFAVETLICDCGLRP, the amyloid nucleation score result was “inactive”.

Sequence EASNCFAIRHFENKFAVETLICDCKNCVLRHPGG showed an amyloid nucleation score of 8.43. As for EASNCFAIRHFENKFAVETLICDCLLTDVWLGRR, the amyloid nucleation score was found to be 7.35. Sequence EASNCFAIRHFENKFAVETLICDCLTFVNMCYR registered an amyloid nucleation score of 7.75. For the sequence EASNCFAIRHFENKFAVETLICDCPPGAKNRRCQ, the amyloid nucleation score turned out to be 7.84.
